# Reference: PubChem BioAssay AID445 (National Center for Advancing Translational Sciences (NCATS), 2006)
# About 40 (0.04%) of roughly 110,000 compounds were called active. Inconclusive results, whose numbers are uncertain, are shown with a selection of clear calls. Calls come from the whole dose curve; as a rule, active = well fitted curve in the direction sought with a large enough effect in the signal ratio (not every such curve was filed as active); inconclusive = small, poorly fitted or top-dose-only effect, or a change in a side signal; inactive = flat fitted curve, though single readings scatter; the % refers to the signal ratio. Where the call is inconclusive, the potency comes from a doubtful curve fit.
# Assay: IkB Signaling
# Conditions: ABC-DLBCL IkBa-CBG/CBR dual luciferase ratio (green luciferase fused to IkBa over red control in OCI-Ly3 lymphoma cells), 4 h; IkBa stabilization activation: at 57.1 µM (top of the series), scaled: untreated 0%, proteasome inhibitor 100% unless noted
# Outline: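 Curves were fitted separately to fusion (green), unfused (red) and ratio luminescence, then classed by r2, magnitude and activity. Cells: OCI-Ly3, 4 h compound plus doxycycline at 37C; 10 uM MG-132 defined full response.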
# Potency is the fitted concentration of half-maximal effect.
Structure (SMILES),IkBa stabilization activation,Potency
O=C(NC1=NCCS1)c1cccs1,inactive: -2.48%,–
Cc1ccc2c(CN3CCN(C(=O)c4ccc(F)cc4)CC3)cc(=O)oc2c1,inconclusive: 0.849% [signal inhibitor],–
Nc1cccc(-c2nc3ccccc3[nH]2)c1,inactive: 7.77%,–
Cc1ccc(OCC(=O)N(c2ccc(C)cc2)S(=O)(=O)c2ccc(Cl)cc2)cc1,inconclusive: 5.78% [signal inhibitor],–
CCOc1ccccc1NC(=O)CSc1nc(=O)[nH]c2c1CCCC2,inconclusive: 3.91% [signal inhibitor],–
CC(C)(C)c1ccc(C(=O)NCCc2csc3nc(-c4ccccc4F)nn23)cc1,inconclusive: 2.67% [signal inhibitor],–
CSCCC(NS(=O)(=O)c1ccc2c(c1)oc(=O)n2C)C(=O)N1CCN(c2cc(C)ccc2C)CC1 (stereo not given),inactive: 1.76%,–
COc1ccc(C2(Nc3cccc(C(=O)O)c3C)C(=O)c3ccccc3C2=O)cc1,inconclusive: -1.49% [signal inhibitor],–
Cn1nc(-c2ccc(Cl)cc2)c2cc(C(=O)N3CCCC3)sc21,inconclusive: -0.417% [signal inhibitor],–
COc1ccc(-c2csc3nc(-c4ccccc4C)oc(=O)c23)cc1OC,inconclusive: 4.12% [signal inhibitor],–
Cc1ccccc1CS(=O)(=O)c1nnc([C@H](CC(C)C)NC(=O)OC(C)(C)C)o1,–,"inconclusive: 5.01 µM [signal inhibitor, single point]"
CC(=O)O[C@H]1CC[C@@]2(C)[C@@H](CC[C@H]3[C@H]2CC(=O)[C@@]2(C)[C@@H]3C[C@H]3CC(C)=CC(=O)[C@H]32)C1,"inactive: 1.06% [at 11.4 µM, scaled: untreated 0%, proteasome inhibitor 100%]",–
COc1ccc(NC(=O)CSc2oc(-c3cccs3)nc2S(=O)(=O)c2ccc(C)cc2)c(OC)c1,inconclusive: -5.9% [signal inhibitor],–
CN(CC(=O)Nc1nc2ccccc2s1)S(=O)(=O)c1ccccc1,inconclusive: 4.55% [signal inhibitor],–
CCOC(=O)c1c(C)oc2ncnc(N3CCN(c4ccccc4F)CC3)c12,inconclusive: -2.44% [signal inhibitor],–
COc1ccccc1NC(=O)c1ccc(COc2ccccc2OC)o1,inconclusive: 1.68% [signal inhibitor],–
Cn1c(=O)c2c(-c3ccc(Cl)cc3)n(Cc3ccccc3)cc2n(C)c1=O,inconclusive: 6.5% [signal inhibitor],–
C=CCn1c(SCc2ccc(Cl)cc2)nc2c1c(=O)[nH]c(=O)n2C,inactive: -0.204%,–
O=C(Nc1ccccc1N1CCN(c2ccc(F)cc2)CC1)c1ccccc1,inactive: 1.42%,–
COc1ccc(CNC(=O)CSc2nc3ccccc3nc2Cc2ccccc2)cc1,inconclusive: 2.16% [signal inhibitor],–
COc1cccc(/C=C/c2nc(C#N)c(NCCN(C)C)o2)c1,inconclusive: -2.46% [signal inhibitor],–
COc1ccc(-c2cc(C(=O)Nc3c(C)nn(Cc4ccc(Cl)cc4)c3C)no2)cc1,inactive: 0.444%,–
CN(Cc1ccccc1)C(=O)c1ccc2c(c1)N(Cc1ccccc1F)C(=O)c1ccccc1S2(=O)=O,inconclusive: 1.93% [signal inhibitor],–

Structure (SMILES),IkBa stabilization activation,Potency
CCCOc1cccc(NC(=O)c2c(-c3ccccc3Cl)noc2C)c1,inconclusive: 3.36% [signal inhibitor],–
CN(C(=O)CSc1nc2ccc(NC(=O)COc3ccc(Cl)cc3)cc2s1)c1ccccc1,inconclusive: -1.93% [signal inhibitor],–
COc1cc(/C=C/c2nc(C#N)c(N3CCCCCC3)o2)cc(OC)c1OC,inconclusive: 3.01% [signal inhibitor],–
COC(=O)CSc1nc(-c2ccccc2)cc(-c2ccco2)c1C#N,inactive: 0.00634%,–
Cc1ccc(Cl)cc1-n1c(=O)cc(N2CCN(c3ccc(F)cc3)CC2)[nH]c1=O,inconclusive: 1.95% [signal inhibitor],–
CCn1cnc2sc(C(=O)N(Cc3ccc(N(C)C)cc3)Cc3ccco3)c(C)c2c1=O,inconclusive: -0.989% [signal inhibitor],–
Cc1nn(-c2ccccc2)c(C)c1C(=O)OCC(=O)c1c(N)n(CC(C)C)c(=O)n(C)c1=O,inconclusive: 3.76% [signal inhibitor],–
CSC1=C(C#N)C(c2cccc(Br)c2)CC(=O)N1 (stereo not given),inactive: 0.869%,–
CCCCNC(=O)c1nn(-c2ccc(CC)cc2)nc1CO,inconclusive: -0.71% [signal inhibitor],–
Cc1cccc(NC(=O)C2CCN(S(=O)(=O)c3ccc(F)cc3)CC2)c1C,inconclusive: 1.85% [signal inhibitor],–
O=C(O)CCN1C(=O)C(=C2CCCCCC2)SC1=S,–,"inconclusive: 12.6 µM [signal inhibitor, partial curve]"
CCNc1nc(N)nc(Oc2ccc(OCCOc3ccc(Cl)cc3Cl)nn2)n1,inactive: -0.36%,–
CCCOC(=O)CCn1c(=S)oc2ccccc21,inactive: 0.311%,–
CCCn1c(=O)sc2cc(NC(=O)COc3ccc(Cl)cc3)ccc21,inconclusive: -3.68% [signal inhibitor],–
COc1cccc(CN(C(=O)c2oc3cc(C)ccc3c2C)C2CCS(=O)(=O)C2)c1 (stereo not given),inconclusive: 1.15% [signal inhibitor],–
N#Cc1ccc2ccn(CC(=O)NC3CCCCC3)c2c1,inactive: 0.425%,–
CCN(CC)CC(C)CNC(=O)c1cc(-c2ccc(Br)s2)nc2ccccc12 (stereo not given),inconclusive: -0.0845% [signal inhibitor],–
CCOC(=O)c1ccc(NS(=O)(=O)c2ccc3c(c2)n(C)c(=O)n3C)cc1,–,inconclusive: 25.1 µM [signal inhibitor]
COc1ccc(C)cc1NC(=O)c1ccc2c(SCC(=O)O)c3c(nc2c1)CCCC3,inconclusive: 13.8% [signal inhibitor],–
CCOC(=O)c1cc2c(=O)n3ccccc3nc2n(Cc2ccc(Cl)cc2)c1=N,inactive: -0.985%,–
c1csc(CCNc2ncnc3sc4c(c23)CCC4)c1,inconclusive: -2.62% [signal inhibitor],–
CCCC1=Nc2cc(C(=O)NC3CCCC3)ccc2Sc2ccc(C)cc21,–,inconclusive: 1.58 µM [signal activator]
